{
  "source": "the supplement of paper PMC8728848",
  "assay_in_all_cases": "glycan array binding signal (z-score within array); higher = stronger binding",
  "conditions_in_all_cases": "glycan notation: IUPAC condensed, linker removed",
  "key": {"[1]": {"biological_target": "Man(a1-2)Man(a1-6)[Man(a1-3)]Man(a1-6)[Man(a1-2)Man(a1-2)Man(a1-3)]Man", "procedure,_shortened": "(§1)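 Glycan array binding is given as a within-array Z-score, which can be read as non-binding when negative. The arrays, 3228 of them, came from the Consortium for Functional Glycomics database and were retained only where the protein sequence was available. Z-scores were averaged across arrays of the same protein sequence at different concentrations or buffers and across linkers.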"}, "[2]": {"biological_target": "Man(a1-2)Man(a1-6)[Man(a1-3)]Man(a1-6)[Man(a1-2)Man(a1-2)Man(a1-3)]Man(b1-4)GlcNAc(b1-4)GlcNAc", "procedure,_shortened": "as §1"}, "[3]": {"biological_target": "Man(a1-3)[Man(a1-6)]Man", "procedure,_shortened": "as §1"}, "[4]": {"biological_target": "Man(a1-3)[Man(a1-6)]Man(a1-6)[Man(a1-2)Man(a1-3)]Man(b1-4)GlcNAc(b1-4)GlcNAc", "procedure,_shortened": "as §1"}, "[5]": {"biological_target": "Man(a1-3)[Man(a1-6)]Man(a1-6)[Man(a1-3)]Man", "procedure,_shortened": "as §1"}, "[6]": {"biological_target": "Man(a1-3)[Man(a1-6)]Man(a1-6)[Man(a1-3)]Man(b1-4)GlcNAc(b1-4)GlcNAc", "procedure,_shortened": "as §1"}, "[7]": {"biological_target": "Man(a1-3)[Man(a1-6)]Man(b1-4)GlcNAc(b1-4)GlcNAc", "procedure,_shortened": "as §1"}, "[8]": {"biological_target": "Man(a1-6)Man", "procedure,_shortened": "as §1"}, "[9]": {"biological_target": "Man(b1-4)GlcNAc", "procedure,_shortened": "as §1"}, "[10]": {"biological_target": "Neu5Ac(a2-3)Gal", "procedure,_shortened": "as §1"}, "[11]": {"biological_target": "Neu5Ac(a2-3)Gal(b1-3)GalNAc", "procedure,_shortened": "as §1"}, "[12]": {"biological_target": "Neu5Ac(a2-3)Gal(b1-3)GalNAc(b1-3)Gal(a1-4)Gal(b1-4)Glc", "procedure,_shortened": "as §1"}, "[13]": {"biological_target": "Neu5Ac(a2-3)Gal(b1-3)GalNAc(b1-3)Gal(b1-4)GlcNAc", "procedure,_shortened": "as §1"}, "[14]": {"biological_target": "Neu5Ac(a2-3)Gal(b1-3)GalNAc(b1-4)[Neu5Ac(a2-3)]Gal(b1-4)Glc", "procedure,_shortened": "as §1"}, "[15]": {"biological_target": "Neu5Ac(a2-3)Gal(b1-3)GalNAc(b1-4)[Neu5Ac(a2-8)Neu5Ac(a2-3)]Gal(b1-4)Glc", "procedure,_shortened": "as §1"}, "[16]": {"biological_target": "Neu5Ac(a2-3)Gal(b1-3)GalNAc6S", "procedure,_shortened": "as §1"}, "[17]": {"biological_target": "Neu5Ac(a2-3)Gal(b1-3)GlcNAc", "procedure,_shortened": "as §1"}, "[18]": {"biological_target": "Neu5Ac(a2-3)Gal(b1-3)GlcNAc(b1-3)Gal(b1-3)GlcNAc", "procedure,_shortened": "as §1"}, "[19]": {"biological_target": "Neu5Ac(a2-3)Gal(b1-3)GlcNAc(b1-3)Gal(b1-4)GlcNAc", "procedure,_shortened": "as §1"}, "[20]": {"biological_target": "Neu5Ac(a2-3)Gal(b1-3)GlcNAc(b1-3)GalNAc", "procedure,_shortened": "as §1"}, "[21]": {"biological_target": "Neu5Ac(a2-3)Gal(b1-3)GlcNAc6S", "procedure,_shortened": "as §1"}, "[22]": {"biological_target": "Neu5Ac(a2-3)Gal(b1-3)[Fuc(a1-4)]GlcNAc", "procedure,_shortened": "as §1"}, "[23]": {"biological_target": "Neu5Ac(a2-3)Gal(b1-3)[Fuc(a1-4)]GlcNAc(b1-3)Gal(b1-3)[Fuc(a1-4)]GlcNAc", "procedure,_shortened": "as §1"}, "[24]": {"biological_target": "Neu5Ac(a2-3)Gal(b1-3)[Fuc(a1-4)]GlcNAc(b1-3)Gal(b1-4)[Fuc(a1-3)]GlcNAc", "procedure,_shortened": "as §1"}, "[25]": {"biological_target": "Neu5Ac(a2-3)Gal(b1-3)[Neu5Ac(a2-3)Gal(b1-4)]GlcNAc", "procedure,_shortened": "as §1"}, "[26]": {"biological_target": "Neu5Ac(a2-3)Gal(b1-3)[Neu5Ac(a2-6)]GalNAc", "procedure,_shortened": "as §1"}, "[27]": {"biological_target": "Neu5Ac(a2-3)Gal(b1-4)Glc", "procedure,_shortened": "as §1"}, "[28]": {"biological_target": "Neu5Ac(a2-3)Gal(b1-4)GlcNAc", "procedure,_shortened": "as §1"}, "[29]": {"biological_target": "Neu5Ac(a2-3)Gal(b1-4)GlcNAc(b1-2)Man(a1-3)[GlcNAc(b1-2)Man(b1-4)GlcNAc(b1-2)Man(a1-6)]Man(b1-4)GlcNAc(b1-4)GlcNAc", "procedure,_shortened": "as §1"}, "[30]": {"biological_target": "Neu5Ac(a2-3)Gal(b1-4)GlcNAc(b1-2)Man(a1-3)[Neu5Ac(a2-3)Gal(b1-4)GlcNAc(b1-2)Man(a1-6)]Man(b1-4)GlcNAc(b1-4)GlcNAc", "procedure,_shortened": "as §1"}, "[31]": {"biological_target": "Neu5Ac(a2-3)Gal(b1-4)GlcNAc(b1-2)Man(a1-3)[Neu5Ac(a2-6)Gal(b1-4)GlcNAc(b1-2)Man(a1-6)]Man(b1-4)GlcNAc(b1-4)GlcNAc", "procedure,_shortened": "as §1"}, "[32]": {"biological_target": "Neu5Ac(a2-3)Gal(b1-4)GlcNAc(b1-3)Gal", "procedure,_shortened": "as §1"}, "[33]": {"biological_target": "Neu5Ac(a2-3)Gal(b1-4)GlcNAc(b1-3)Gal(b1-3)GlcNAc", "procedure,_shortened": "as §1"}, "[34]": {"biological_target": "Neu5Ac(a2-3)Gal(b1-4)GlcNAc(b1-3)Gal(b1-4)GlcNAc", "procedure,_shortened": "as §1"}},
  "note": "The other results are listed elsewhere or left out.",
  "data": [
    {"binder": "F17aG (Escherichia coli), Q99003 (protein) MTNFYKVFLAVFILVCCNISQAAVSFIGSTENDVGPSLGSYSRTHAMDNLPFVYDTRNKIGYQNANVWHISKGFCVGLDGKVDLPVVGSLDGQSIYGLTEEVGLLIWMGDTKYSRGTAMSGNSWENVFSGWCVGANTASTQGLSVRVTPVILKRNSSARYSVQKTSIGSIRMRPYNGSSAGSVQTTVNFSLNPFTLNDTVTSCRLLTPSAVNVSLAAISAGQLPSSGDEVVAGTTSLKLQCDAGVTVWATLTDATTPSNRSDILTLTGASTATGVGLRIYKNTDSTPLKFGPDSPVKGNENQWQLSTGTETSPSVRLYVKYVNTGEGINPGTVNGISTFTFSYQ", "values": [
      {"measurement": "glycan array binding signal (z-score)", "setting": "[1]", "result": -0.157},
      {"measurement": "glycan array binding signal (z-score)", "setting": "[2]", "result": -0.238},
      {"measurement": "glycan array binding signal (z-score)", "setting": "[3]", "result": 0.234},
      {"measurement": "glycan array binding signal (z-score)", "setting": "[4]", "result": -0.172},
      {"measurement": "glycan array binding signal (z-score)", "setting": "[5]", "result": -0.174},
      {"measurement": "glycan array binding signal (z-score)", "setting": "[6]", "result": -0.176},
      {"measurement": "glycan array binding signal (z-score)", "setting": "[7]", "result": -0.202},
      {"measurement": "glycan array binding signal (z-score)", "setting": "[8]", "result": -0.158},
      {"measurement": "glycan array binding signal (z-score)", "setting": "[9]", "result": -0.032},
      {"measurement": "glycan array binding signal (z-score)", "setting": "[10]", "result": -0.245},
      {"measurement": "glycan array binding signal (z-score)", "setting": "[11]", "result": -0.191},
      {"measurement": "glycan array binding signal (z-score)", "setting": "[12]", "result": -0.238},
      {"measurement": "glycan array binding signal (z-score)", "setting": "[13]", "result": -0.344},
      {"measurement": "glycan array binding signal (z-score)", "setting": "[14]", "result": -0.251},
      {"measurement": "glycan array binding signal (z-score)", "setting": "[15]", "result": -0.195},
      {"measurement": "glycan array binding signal (z-score)", "setting": "[16]", "result": -0.219},
      {"measurement": "glycan array binding signal (z-score)", "setting": "[17]", "result": -0.207},
      {"measurement": "glycan array binding signal (z-score)", "setting": "[18]", "result": -0.155},
      {"measurement": "glycan array binding signal (z-score)", "setting": "[19]", "result": -0.181},
      {"measurement": "glycan array binding signal (z-score)", "setting": "[20]", "result": -0.157},
      {"measurement": "glycan array binding signal (z-score)", "setting": "[21]", "result": -0.227},
      {"measurement": "glycan array binding signal (z-score)", "setting": "[22]", "result": -0.226},
      {"measurement": "glycan array binding signal (z-score)", "setting": "[23]", "result": -0.173},
      {"measurement": "glycan array binding signal (z-score)", "setting": "[24]", "result": -0.056},
      {"measurement": "glycan array binding signal (z-score)", "setting": "[25]", "result": 0.26},
      {"measurement": "glycan array binding signal (z-score)", "setting": "[26]", "result": -0.081},
      {"measurement": "glycan array binding signal (z-score)", "setting": "[27]", "result": -0.166},
      {"measurement": "glycan array binding signal (z-score)", "setting": "[28]", "result": -0.248},
      {"measurement": "glycan array binding signal (z-score)", "setting": "[29]", "result": -0.181},
      {"measurement": "glycan array binding signal (z-score)", "setting": "[30]", "result": -0.333},
      {"measurement": "glycan array binding signal (z-score)", "setting": "[31]", "result": -0.178},
      {"measurement": "glycan array binding signal (z-score)", "setting": "[32]", "result": -0.158},
      {"measurement": "glycan array binding signal (z-score)", "setting": "[33]", "result": -0.156},
      {"measurement": "glycan array binding signal (z-score)", "setting": "[34]", "result": -0.075}
    ]}
  ]
}
